In all, about 39,000 compounds went through this assay and about 220 (0.56%) showed activity. The list shows a part of the results.

61 compounds from the supplement of paper PMC9446081 can be followed below.
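Further: static incubation at 37 °C against the wild-type strain, values averaged over two biological replicates.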

The assay has as its system Escherichia coli K-12 BW25113. Briefly: relative growth (OD600 normalised to plate interquartile mean) (fraction); higher = less growth inhibition, active = 0.2 or less. The following applies: 50 µM; LB; incubation time: overnight (16-24 h).
As for `C[C@H](CO)N1C[C@H](C)[C@H](CN(C)C(=O)Nc2cccc(C(F)(F)F)c2)OCc2cn(nn2)CCCC1=O`, the relative growth is inactive: 0.993.

For `COC(=O)c1cncn1C`, the relative growth is inactive: 0.982.

As for `C=CCC[C@H](Cc1ccc(F)cc1)C(=O)OC[C@H](Cc1c[nH]c2ccccc12)NC(=O)[C@@H](CC=C)CC(=O)N[C@@H](CO)Cc1ccccc1`, the relative growth is inactive: 0.995.

On to `CCC(=O)N[C@@H]1CC[C@@H](CC(=O)OC)O[C@@H]1CO`, for which the relative growth was inactive: 1.

For the compound `C[C@H]1CN([C@@H](C)CO)C(=O)c2cccc(NC(=O)c3nc4ccccc4s3)c2O[C@@H]1CN(C)C(=O)Nc1cccc2ccccc12`, the relative growth was inactive: 1.02.

Consider `C=C[C@@H](N)CCC(=O)O`, for which the relative growth is inactive: 0.998.

Take `COc1ccc([Si](C)(C)[C@H]2[C@H](CCO)O[C@@]3(C(=O)N(Cc4ccccc4)c4ccc(N5CCCCC5=O)cc43)[C@@H]2C)cc1`: the relative growth is inactive: 1.04.

As to `CCCNC(=O)N1C[C@@H](C)[C@@H](OC)CN(C)C(=O)c2cc(NS(=O)(=O)CC(F)(F)F)ccc2OC[C@H]1C`, the relative growth is inactive: 1.01.

For `O=C(C[C@H]1CC[C@H]2[C@@H](COC[C@@H](O)CN2C(=O)Nc2ccc(F)cc2)O1)NCCCN1CCOCC1`, the relative growth is inactive: 0.983.

`C=CCN1C[C@@H](C(=O)O)CCC1=O`: the relative growth was inactive: 1.02.

With `COc1cccc(C#Cc2ccc([C@@H]3[C@@H](CO)N4C(=O)CN(S(=O)(=O)c5ccccc5C)C[C@H]34)cc2)c1`, the relative growth was inactive: 1.05.

As to `COc1ccccc1OCC(O)CN1CCN(CC(=O)Nc2c(C)cccc2C)CC1.Cl.Cl` (stereo unspecified), the relative growth was inactive: 1.04.

`C[C@@H]1CCCCO[C@H](CN(C)C(=O)Nc2ccc3c(c2)OCO3)[C@@H](C)CN([C@H](C)CO)C(=O)c2cc(NC(=O)C3CCCCC3)ccc2O1`: the relative growth was inactive: 0.989.

With `O=C(CN1CCOCC1)N[C@H]1CC[C@@H](CCn2cc(C3CCCC3)nn2)O[C@H]1CO`, the relative growth is inactive: 0.982.

As for `C[C@@H]1CCCCO[C@H](CN(C)S(C)(=O)=O)[C@@H](C)CN([C@H](C)CO)C(=O)c2cc(NS(=O)(=O)c3ccc(F)cc3)ccc2O1`, the relative growth is inactive: 1.

As to `CCCNC(=O)[C@@H]1c2ccccc2C(=O)N(Cc2cc(C(F)(F)F)cc(C(F)(F)F)c2)[C@H]1c1ccc(CO)cc1`, the relative growth was inactive: 1.01.

With `Cc1ccc(S(=O)(=O)Nc2ccc3c(c2)C(=O)N([C@H](C)CO)C[C@@H](C)[C@H](CN(C)S(=O)(=O)c2ccc(Cl)cc2)OCCCC[C@@H](C)O3)cc1`, the relative growth is inactive: 1.02.

As for `C[C@H](CO)N1C[C@H](C)[C@@H](CN(C)Cc2ccncc2)Oc2c(NS(=O)(=O)c3cccs3)cccc2C1=O`, the relative growth is inactive: 0.991.

For `C[C@H](CO)N1C[C@H](C)[C@@H](CN(C)C(=O)Nc2ccc(N3CCN(C)CC3)cc2)OCc2cn(nn2)CCCC1=O`, the relative growth was inactive: 0.983.

As to `C[C@H](CO)N1C[C@H](C)[C@@H](CN(C)S(=O)(=O)c2ccc(Cl)cc2)Oc2ccc(NS(=O)(=O)c3cn(C)cn3)cc2CC1=O`, the relative growth was inactive: 1.03.

As for `CC(C)NC(=O)N(C)C[C@@H]1Oc2ccc(NC(=O)C3CCCCC3)cc2C(=O)N([C@H](C)CO)C[C@H]1C`, the relative growth was inactive: 0.97.

Turning to `C[C@H](CO)N1C[C@H](C)[C@H](CN(C)S(=O)(=O)c2ccccc2)Oc2c(NC(=O)C3CC3)cccc2C1=O`, the relative growth is inactive: 0.99.

Regarding `Cc1ccc(S(=O)(=O)NC(=O)NN2CCCCCC2)cc1`, the relative growth was inactive: 1.06.

With `O=C(CCCCCNC(=O)OCc1ccc(CO[C@H]2C[C@@H](C3CCCCC3)C=C(C(=O)N3CCN(Cc4ccccc4)CC3)O2)cc1)NO`, the relative growth was inactive: 1.01.

Take `Cc1noc(C)c1NC(=O)Nc1ccc2c(c1)C(=O)N([C@H](C)CO)C[C@H](C)[C@H](CN(C)Cc1ccccc1)OCCCC[C@@H](C)O2`: the relative growth was inactive: 0.984.

Turning to `C[C@@H]1CN([C@H](C)CO)C(=O)c2cccc(NS(=O)(=O)c3ccccc3)c2O[C@@H]1CN(C)S(=O)(=O)c1ccccc1`, the relative growth was inactive: 0.994.

Regarding `C[C@@H]1C(=O)O[C@H]2[C@H](O)[C@@]34[C@H]5C[C@@H](C(C)(C)C)[C@]36[C@@H](OC(=O)[C@@H]6O)O[C@@]4(C(=O)O5)[C@@]12O`, the relative growth was inactive: 0.996.

With `C#CCN(O[C@@H](/C=C/[C@@H](O)CCn1cc(-c2cccc(/C=C/C(=O)NO)c2)nn1)C1CC1)[C@@H](Cc1ccccc1)C(=O)OC`, the relative growth was inactive: 1.01.

`CCCC#Cc1ccc2c(c1)O[C@H](CN(C)S(=O)(=O)c1cccc(OC)c1)[C@H](C)CN([C@@H](C)CO)S2(=O)=O`: the relative growth is inactive: 1.01.

Turning to `C[C@H]1CN([C@@H](C)CO)C(=O)c2cccc(NS(C)(=O)=O)c2O[C@H]1CN(C)Cc1ccc(C(=O)Nc2ccccc2N)cc1`, the relative growth was inactive: 0.999.

Regarding `COCCN1CCN(C)C2(CCN(C(=O)[C@H]3CCCO3)CC2)C1=O`, the relative growth is inactive: 0.998.

For the compound `C[C@@H]1CN([C@H](C)CO)C(=O)c2cc(NS(=O)(=O)c3cn(C)cn3)ccc2O[C@@H]1CN(C)C(=O)NC1CCCCC1`, the relative growth was inactive: 0.98.

Consider `C[C@H](CO)N1C[C@H](C)[C@@H](CN(C)C(=O)Nc2cccc(F)c2)Oc2cc(C#CC3(O)CCCC3)ccc2S1(=O)=O`, for which the relative growth is inactive: 0.996.

As for `Cc1onc(-c2ccccc2)c1C#N`, the relative growth was inactive: 0.989.

With `O=C(CCCCCC(=O)N/N=C/[C@H](O)[C@@H](O)[C@H](O[C@@H]1O[C@H](CO)[C@H](O)[C@H](O)[C@H]1O)[C@H](O)CO)NO`, the relative growth is inactive: 1.01.

Turning to `CC(C)NC(=O)Nc1ccc2c(c1)C(=O)N([C@H](C)CO)C[C@@H](C)[C@H](CN(C)C(=O)Nc1ccccc1)OCCCC[C@@H](C)O2`, the relative growth is inactive: 0.988.

For `O=C(C[C@H]1CC[C@H](NC(=O)CN2CCOCC2)[C@@H](CO)O1)NC1CCC1`, the relative growth was inactive: 1.

Turning to `COc1ccc(NC(=O)Nc2ccc3c(c2)CC(=O)N([C@@H](C)CO)C[C@@H](C)[C@@H](CN(C)S(=O)(=O)c2c(C)noc2C)O3)cc1`, the relative growth was inactive: 1.01.

With `C[C@H](CO)N1C[C@H](C)[C@@H](CN(C)C(=O)Nc2ccccc2)Oc2ccc(NC(=O)Nc3ccc(C(F)(F)F)cc3)cc2C1=O`, the relative growth was inactive: 0.993.

Turning to `O=C(O)CC(O)(CC(=O)O)C(=O)O.[LiH].[LiH].[LiH]`, the relative growth is inactive: 1.01.

Turning to `Cc1ccc(S(=O)(=O)N(C)C[C@@H]2OCCCC[C@H](C)Oc3ccc(NC(=O)Nc4ccc(C(F)(F)F)cc4)cc3C(=O)N([C@@H](C)CO)C[C@@H]2C)cc1`, the relative growth is inactive: 1.

Consider `C[C@@H]1CN([C@H](C)CO)C(=O)c2cccc(NC(=O)C3CC3)c2O[C@@H]1CN(C)S(=O)(=O)c1cccs1`, for which the relative growth is inactive: 1.04.

In the case of `COc1ccc(CNC(=S)NN)cc1`, the relative growth was inactive: 0.966.

On to `CC(C)(C)[C@H]1CCc2c(sc3nc(-c4ccccc4)cn23)C1`, for which the relative growth is inactive: 0.978.

For `C[C@H]1CN([C@@H](C)CO)C(=O)Cc2cc(NS(=O)(=O)c3ccc(Cl)cc3)ccc2O[C@H]1CN(C)S(C)(=O)=O`, the relative growth is inactive: 0.978.

Consider `C[C@@H]1CCCCO[C@@H](CN(C)Cc2ccc(Cl)c(Cl)c2)[C@@H](C)CN([C@H](C)CO)C(=O)c2cc(NC(=O)Nc3ccccc3)ccc2O1`, for which the relative growth was inactive: 1.02.

`CN1CCN(C(=O)C[C@@H]2CC[C@H]3[C@@H](COc4ccc(NC(=O)c5cccs5)cc4C(=O)N3C)O2)CC1`: the relative growth is inactive: 1.02.

Take `C[C@@H]1CN([C@@H](C)CO)C(=O)CCCn2nncc2CO[C@@H]1CN(C)C(=O)Nc1ccc(N2CCN(C)CC2)cc1`: the relative growth was inactive: 0.987.

`C[C@@H]1CCCCO[C@@H](CN(C)C(=O)NC2CCCCC2)[C@@H](C)CN([C@H](C)CO)C(=O)c2cc(NS(=O)(=O)c3ccc(F)cc3)ccc2O1`: the relative growth was inactive: 0.983.

In the case of `C[C@@H]1CN([C@@H](C)CO)C(=O)c2cc(NC(=O)NC3CCCCC3)ccc2O[C@@H]1CN(C)Cc1ccc(-c2ccccc2)cc1`, the relative growth is inactive: 1.02.

Turning to `CC(C)NC(=O)N(C)C[C@@H]1Oc2c(NC(=O)C3CCCCC3)cccc2C(=O)N([C@@H](C)CO)C[C@@H]1C`, the relative growth was inactive: 0.988.

On to `C[C@@H]1CN([C@@H](C)CO)C(=O)Cc2cc(NC(=O)Nc3cccc4ccccc34)ccc2O[C@@H]1CN(C)C(=O)Nc1ccccc1`, for which the relative growth is inactive: 1.04.

For the compound `Cc1noc(C)c1NC(=O)N(C)C[C@H]1OCCCC[C@@H](C)Oc2ccc(NC(=O)Nc3ccccc3)cc2C(=O)N([C@H](C)CO)C[C@@H]1C`, the relative growth is inactive: 1.01.

For `C[C@H](CO)N1C[C@H](C)[C@H](CN(C)Cc2ccccc2)OCCCC[C@H](C)Oc2ccc(NC(=O)Nc3ccc4c(c3)OCO4)cc2C1=O`, the relative growth was inactive: 0.989.

Take `CCCNC(=O)N(C)C[C@@H]1Oc2cc(-c3ccc(C)cc3)ccc2S(=O)(=O)N([C@H](C)CO)C[C@H]1C`: the relative growth was inactive: 1.

For `CCNC(=O)C[C@@H]1C=C[C@@H](NC(=O)C2CCOCC2)[C@@H](CO)O1`, the relative growth was inactive: 1.01.

On to `Cc1ccc(S(=O)(=O)Nc2cccc3c2O[C@@H](CN(C)Cc2ccc(Oc4ccccc4)cc2)[C@@H](C)CN([C@H](C)CO)C3=O)cc1`, for which the relative growth was inactive: 1.02.

Turning to `Cc1noc(C)c1CO`, the relative growth was inactive: 1.01.

For `C[C@@H]1CN([C@H](C)CO)C(=O)c2cccc(NS(C)(=O)=O)c2O[C@@H]1CN(C)C(=O)Nc1ccccc1`, the relative growth was inactive: 0.995.

Turning to `COC(=O)[C@@H]1CC(=O)O[C@H](C)C/C=C/C=C/[C@H](O)[C@H](C)C[C@H](CC=O)[C@H](O[C@H]2O[C@H](C)[C@@H](O[C@H]3C[C@@](C)(O)[C@@H](OC(=O)CC(C)C)[C@H](C)O3)[C@H](N(C)C)[C@H]2O)[C@H]1OC`, the relative growth was inactive: 0.992.

For the compound `C[C@H]1CCCCO[C@@H](CN(C)C(=O)NC2CCCCC2)[C@@H](C)CN([C@@H](C)CO)C(=O)c2cc(NC(=O)c3ccncc3)ccc2O1`, the relative growth is inactive: 1.
